The campaign covered roughly 110,000 compounds. About 40 (0.04%) were called active. The inconclusive results got no clear call from the source; some entries with a clear call stand among them for comparison. Calls follow the shape of the dose curve; as a rule, active = well fitted curve in the direction sought with a large enough effect in the signal ratio (not every such curve was filed as active); inconclusive = small, poorly fitted or top-dose-only effect, or a change in a side signal; inactive = flat fitted curve, though single readings scatter; the % refers to the signal ratio. Potencies of inconclusive entries are doubtful fits and often do not repeat.
Test: IkB Signaling;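 as to IkBa stabilization activation: 0% = basal untreated cells and 100% = reference inhibitor full response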
Details: ABC-DLBCL IkBa-CBG/CBR dual luciferase ratio (green luciferase fused to IkBa over red control in OCI-Ly3 lymphoma cells), 4 h; IkBa stabilization activation: at 57.1 µM (top of the series), scaled: untreated 0%, proteasome inhibitor 100% unless noted
In short: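 Curves were fitted separately to fusion (green), unfused (red) and ratio luminescence, then classed by r2, magnitude and activity. Cells: OCI-Ly3, 4 h compound plus doxycycline at 37C; 10 uM MG-132 defined full response.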
For `CCN1C(=O)CC(C(=O)Nc2ccc(F)cc2)SC1=Nc1ccc2c(c1)OCO2` (configuration not stated), the IkBa stabilization activation was inconclusive: 2.21% [signal inhibitor]. For `CCCCOc1ccc(S(=O)(=O)Nc2cccc(-c3ccc(N4CCOCC4)nn3)c2)cc1`, the IkBa stabilization activation was inconclusive: 2.08% [signal inhibitor]. With `COc1ccccc1-c1nc(NC(C)=O)n[nH]1` the IkBa stabilization activation was inconclusive: 5.88% [signal inhibitor]. In the case of `CC(Sc1nc(-c2ccccc2)c(C#N)c(=O)[nH]1)C(=O)Nc1ccc(F)cc1` (configuration not stated), the IkBa stabilization activation is reported as inconclusive: 1.16% [signal inhibitor]. In the case of `NS(=O)(=O)c1ccc(N=Nc2ccc(O)c(C(=O)O)c2)cc1`, the IkBa stabilization activation is reported as inactive: 0.631% [at 11.4 µM, scaled: untreated 0%, proteasome inhibitor 100%]. For `COc1ccc(N(CC(=O)N2CCN(c3cc(C)ccc3C)CC2)S(=O)(=O)c2c(C)noc2C)cc1`, the IkBa stabilization activation was inconclusive: 0.671% [signal inhibitor]. With `CCOc1ccc(NC(=O)CC2CC(C)(C)OC2=O)cc1` (configuration not stated) the “IkBa stabilization activation” value was inactive: -0.367%. With `O=C(CSc1ccc(Cl)cc1)c1ccco1` the Potency was inconclusive: 39.8 µM [rising, single point]. For `CCOC(=O)c1cc(-c2ccc(F)cc2)n(CCC(=O)Nc2ccccc2OC)c1C`, the IkBa stabilization activation was inconclusive: -0.111% [signal inhibitor]. In the case of `COc1ccc(NC(=O)Cn2c(=O)n(-c3ccc(Cl)cc3)c(=O)c3c(C)c(C(=O)N(C)C)sc32)cc1Cl`, the “IkBa stabilization activation” value is reported as inactive: -0.187%. For `COc1cc(C)cc2c(-c3c(O)cc(O)c4c3C[C@H](C)N[C@@H]4C)cc(-c3cc(-c4c(O)cc(O)c5c4C[C@H](C)N[C@@H]5C)c4cc(C)cc(OC)c4c3O)c(O)c12`, the IkBa stabilization activation was inactive: 1.41% [at 11.4 µM, scaled: untreated 0%, proteasome inhibitor 100%]. With `Cc1ccc(CSc2nc(=O)c3c(C)cc(C)nc3n2C2CC2)cc1` the IkBa stabilization activation was inconclusive: -4.82% [signal inhibitor]. With `c1ccc2nc(-c3nc4ccccc4o3)ccc2c1` the IkBa stabilization activation was inconclusive: 16.8% [signal inhibitor]. In the case of `COC(=O)c1cc(Cl)c(NC(=O)/C=C/c2ccc(Cl)cc2Cl)cc1OC`, the IkBa stabilization activation is reported as inconclusive: 0.402% [signal inhibitor]. In the case of `CC(C)C(NS(=O)(=O)c1ccc2c(c1)OCCO2)C(=O)NCCc1ccccn1` (configuration not stated), the “IkBa stabilization activation” value is reported as inactive: 0.148%. In the case of `COc1ccccc1C(=O)NCCc1nc2ccccc2[nH]1`, the Potency is reported as inconclusive: 7.94 µM [signal inhibitor, full curve]. With `Cc1cccc(Oc2nc3c(C)cccn3c(=O)c2/C=C(\C#N)c2nc3ccccc3s2)c1` the Potency was inconclusive: 6.31 µM [signal inhibitor, single point]. With `CCOc1ccc(N2CC(c3nc4ccccc4n3CCCOc3ccc(OC)cc3)CC2=O)cc1` (configuration not stated) the IkBa stabilization activation was inconclusive: 0.232% [signal inhibitor]. With `CC(O)CNC(=O)C1CCN(Cc2ccc(OCc3ccccc3)cc2)CC1` (configuration not stated) the IkBa stabilization activation was inconclusive: 2.08% [signal inhibitor]. In the case of `CCCCCCOC(=O)C(C#N)c1nc2ccccc2nc1N1CCCCC1` (configuration not stated), the “IkBa stabilization activation” value is reported as inactive: 2.62%. With `COC(=O)c1c(NC(=O)c2ccc(S(=O)(=O)N3CCCCC3C)cc2)sc2c1CCN(C(C)C)C2` (configuration not stated) the IkBa stabilization activation was inconclusive: -0.415% [signal inhibitor]. In the case of `CCOC(=O)c1ccccc1NC(=O)N(Cc1ccc(C)cc1)Cc1cccn1-c1nnc(N2CCCC2=O)s1`, the “IkBa stabilization activation” value is reported as inactive: -0.461%. With `NCS(=O)(=O)O` the IkBa stabilization activation was inactive: -0.559% [at 11.4 µM, scaled: untreated 0%, proteasome inhibitor 100%]. In the case of `COc1ccc(-c2noc(CSc3nnc(-c4ccncc4)n3-c3ccccc3)n2)cc1`, the IkBa stabilization activation is reported as inconclusive: 3.51% [signal inhibitor]. With `Cc1ccccc1-c1noc(CSc2nnc(Cc3ccccc3)n2-c2ccc(F)cc2)n1` the IkBa stabilization activation was inconclusive: 7.5% [signal inhibitor]. In the case of `Nc1c(-c2ccc(Cl)cc2)nnn1-c1ccccc1`, the IkBa stabilization activation is reported as inconclusive: 10.3% [signal inhibitor]. For `CCC(C)n1c(=N)c(S(=O)(=O)c2ccc(C)cc2)cc2c(=O)n3cc(C)ccc3nc21` (configuration not stated), the “IkBa stabilization activation” value was inactive: -1.88%. With `O=S(=O)(Cc1ccccc1)N1CCC(c2nc(-c3cccs3)no2)CC1` the IkBa stabilization activation was inconclusive: 2.55% [signal inhibitor]. With `C=C(C#N)C(=O)OCC` the “IkBa stabilization activation” value was inactive: 3.49%. In the case of `CC(C)n1c(SCc2ccc(Cl)cc2)nc2c1c(=O)[nH]c(=O)n2C`, the “IkBa stabilization activation” value is reported as inactive: 0.12%. In the case of `CC1=CC(=C2C(=O)c3ccccc3C2=O)C=C(C)N1Cc1ccco1`, the IkBa stabilization activation is reported as inconclusive: 3.44% [signal inhibitor]. For `Cc1ccc(-n2ncc3c(NNC(=O)c4ccccc4C)ncnc32)cc1`, the IkBa stabilization activation was inconclusive: 1.62% [signal inhibitor]. In the case of `CC(C)c1ccc(C2c3c(-c4ccccc4O)n[nH]c3C(=O)N2CCc2ccccc2)cc1` (configuration not stated), the IkBa stabilization activation is reported as inconclusive: 1.02% [signal inhibitor]. With `CCN(CC)CCn1c(=N)n(CC(O)COc2ccccc2C)c2ccccc21` (configuration not stated) the IkBa stabilization activation was inconclusive: 1.2% [signal inhibitor]. In the case of `Cc1ccc(Cn2c(=O)c3c(nc4n3CCN4c3cc(C)cc(C)c3)n(C)c2=O)cc1`, the IkBa stabilization activation is reported as inconclusive: 0.135% [signal inhibitor]. For `CCc1nc(SCC(=O)Nc2cc(C)on2)c2c(C)c(C)sc2n1`, the “IkBa stabilization activation” value was inactive: -0.623%. With `COc1ccc(-c2nc(CCNC(=O)c3cc(OC)c(OC)c(OC)c3)cs2)cc1` the IkBa stabilization activation was inconclusive: 1% [signal inhibitor]. In the case of `COc1ccc(CNC(=O)Cc2c(C)c3c(cc(C)c4c(C)coc43)oc2=O)cc1`, the IkBa stabilization activation is reported as inconclusive: 0.104% [signal inhibitor]. With `Cc1ccc(-c2nnc(Nc3ccc(Cl)cc3)c3ccccc23)cc1S(=O)(=O)NCC1CCCO1` (configuration not stated) the IkBa stabilization activation was inconclusive: 13.4% [signal inhibitor]. With `O=C(c1cccc(Cl)c1)N1CCC(c2nc3c(nnn3Cc3ccc(F)cc3F)c(=O)[nH]2)CC1` the IkBa stabilization activation was inconclusive: 1.86% [signal inhibitor]. With `COc1cc(C(=O)Nc2ccccc2OCc2cc(=O)n3cc(C)sc3n2)cc(OC)c1OC` the “IkBa stabilization activation” value was inactive: -0.633%. In the case of `COc1ccc(C(=O)c2cn(Cc3ccccc3F)c3ccc(F)cc3c2=O)cc1`, the IkBa stabilization activation is reported as inconclusive: 2.24% [signal inhibitor].

From PubChem BioAssay AID445 (National Center for Advancing Translational Sciences (NCATS), 2006)
Potency is read from the fitted curve at half-maximal effect.
